The source gives no read counts; variants with many changes may rest on few reads.
B1: LINE1-mini (parent)
chain: GGCAGAGCUCAACACAGCGUGGCAAAGUGGCUGUGGCUAGACUGCC

Variants of: B1
Test: self-cleavage, relative activity (ratio to wild type); higher = more cleavage; in vitro, sequencing; the parent is a self-cleaving ribozyme

For G2A A16G G17A G30A, which self-cleavage is on record?
Its self-cleavage is 0.14.

With G2A A11C C13A A14C U38C as the variant, how does the self-cleavage read?
The self-cleavage was 0.03.

For G2A G5A G29U, which self-cleavage is on record?
Its self-cleavage is 1.44.

Which self-cleavage does the source give for G2A A12G C15A C46A here?
The self-cleavage was 0.16.

With G2A G5A A11C G29C C31A C37A C42A G44A as the variant, how does the self-cleavage read?
The self-cleavage was 0.01.

For G2A C8A C37A, which self-cleavage is on record?
Its self-cleavage is 0.5.

Which self-cleavage does the source give for G2A A16C C18U G27U G40C here?
The self-cleavage was 0.12.

With G2A A14U G33A as the variant, how does the self-cleavage read?
Its self-cleavage is 0.17.

For G2A C18A U20G, which self-cleavage is on record?
Its self-cleavage is 0.07.

With G2A C10G A25C C31G G35C C42A U43G C45A as the variant, how does the self-cleavage read?
Its self-cleavage is 0.

Which self-cleavage does the source give for G2A C15G G22U here?
Its self-cleavage is 0.04.

For G2A A6U G17A G27C C42G, which self-cleavage is on record?
The self-cleavage was 0.09.

For G2A A26G G29U C31U, which self-cleavage is on record?
The self-cleavage was 0.09.

With G2A C18A C23G A41U as the variant, how does the self-cleavage read?
The self-cleavage was 0.12.

Which self-cleavage does the source give for G2A C10U G17U G29C C37A here?
The self-cleavage was 0.03.

With G2A A6C G29A C42A as the variant, how does the self-cleavage read?
Its self-cleavage is 0.19.

With G2A A6G U9G C10U A11C A16G as the variant, how does the self-cleavage read?
The self-cleavage was 0.02.

Which self-cleavage does the source give for G2A A4G A6G U32A G36C here?
Its self-cleavage is 0.09.

Which self-cleavage does the source give for G2A A25C A39U A41G here?
Its self-cleavage is 0.21.

For G2A A11U A24C G33U G36C, which self-cleavage is on record?
Its self-cleavage is 0.03.

Which self-cleavage does the source give for G2A G5U A6C here?
The self-cleavage was 0.22.

Which self-cleavage does the source give for G2A G5U U20C C23G U28C G29C G36C A39G here?
The self-cleavage was 0.28.

For G2A A16C G33C, which self-cleavage is on record?
The self-cleavage was 0.04.

Which self-cleavage does the source give for G2A A6C C8A C13U G27A U32A here?
Its self-cleavage is 0.6.

For G2A A16G A39C, which self-cleavage is on record?
Its self-cleavage is 0.3.

With G2A C8G C15G U34G as the variant, how does the self-cleavage read?
The self-cleavage was 0.03.

For G2A C3U A12G A41U, which self-cleavage is on record?
The self-cleavage was 0.04.

For G2A C3A C31A U32C, which self-cleavage is on record?
Its self-cleavage is 0.37.

For G2A C10A G21C A25U C45U, which self-cleavage is on record?
Its self-cleavage is 0.02.

For G2A A6U G7A, which self-cleavage is on record?
Its self-cleavage is 0.3.

Which self-cleavage does the source give for G2A C31G G36C G40C here?
The self-cleavage was 0.01.

Which self-cleavage does the source give for G2A A25U G30A G40C here?
Its self-cleavage is 0.15.

With G2A A6U C13G A16C G27U G36C A39C as the variant, how does the self-cleavage read?
Its self-cleavage is 0.5.

For G2A A14C C31G, which self-cleavage is on record?
The self-cleavage was 0.06.

With G2A A14C C31U as the variant, how does the self-cleavage read?
Its self-cleavage is 0.05.

Which self-cleavage does the source give for G2A C3A C31G here?
Its self-cleavage is 0.39.

Which self-cleavage does the source give for G2A C15U G33U G35U A41G here?
Its self-cleavage is 0.32.

Which self-cleavage does the source give for G2A C13U A24C here?
The self-cleavage was 0.85.

Which self-cleavage does the source give for G2A A6G C10A here?
The self-cleavage was 0.01.

Which self-cleavage does the source give for G2A C13A G35C here?
The self-cleavage was 0.11.

For G2A C15A G30U, which self-cleavage is on record?
The self-cleavage was 0.27.

With G2A C3A C15U A16C G22C as the variant, how does the self-cleavage read?
Its self-cleavage is 0.3.

Which self-cleavage does the source give for G2A A11U C18U U34G here?
The self-cleavage was 0.05.

For G2A A6U C23U, which self-cleavage is on record?
Its self-cleavage is 0.33.

Which self-cleavage does the source give for G2A C8U G27A G35U here?
Its self-cleavage is 0.6.

With G2A A6C A11U U43C as the variant, how does the self-cleavage read?
The self-cleavage was 0.04.

Which self-cleavage does the source give for G2A G5U A14C G19C G27A A39C here?
Its self-cleavage is 0.02.

Which self-cleavage does the source give for G2A A11U A16C G22A U43G here?
Its self-cleavage is 0.03.

With G2A C3G G19U C23U as the variant, how does the self-cleavage read?
The self-cleavage was 0.16.

For G2A C10A G22C G29U G33C G44C C45A, which self-cleavage is on record?
Its self-cleavage is 0.01.

Which self-cleavage does the source give for G2A C3G C8G G22A C23A C42G here?
The self-cleavage was 0.17.

Which self-cleavage does the source give for G2A A25U C31U here?
Its self-cleavage is 0.17.

For G2A C3U G7C G17A C31A G33A G35A C45U, which self-cleavage is on record?
Its self-cleavage is 0.13.

For G2A A16G A25G, which self-cleavage is on record?
Its self-cleavage is 0.17.

Which self-cleavage does the source give for G2A A16G C31G U43C C45G here?
The self-cleavage was 0.

With G2A C18A A26G G30A G40C as the variant, how does the self-cleavage read?
The self-cleavage was 0.13.

For G2A A6C U28G G29U C31U, which self-cleavage is on record?
The self-cleavage was 0.03.

Which self-cleavage does the source give for G2A C3A G22C G44A here?
Its self-cleavage is 0.61.

Which self-cleavage does the source give for G2A C3G U32C A39C U43G C46A here?
The self-cleavage was 0.93.

Which self-cleavage does the source give for G2A A4U G19A C31U C46A here?
The self-cleavage was 0.08.

For G2A C13G G17A G19C, which self-cleavage is on record?
Its self-cleavage is 0.34.

For G2A A14U A16U G44U, which self-cleavage is on record?
Its self-cleavage is 0.03.

Which self-cleavage does the source give for G2A G5C U9A C10A G44C here?
Its self-cleavage is 0.05.

Which self-cleavage does the source give for G2A A25U G36C here?
Its self-cleavage is 0.59.

For G2A C13U G19A U34A, which self-cleavage is on record?
Its self-cleavage is 0.66.

Which self-cleavage does the source give for G2A G5U C18U G22A here?
The self-cleavage was 0.86.

With G2A C3U C15U G19C A24C C45G as the variant, how does the self-cleavage read?
The self-cleavage was 0.38.

Which self-cleavage does the source give for G2A C3A A6G C46U here?
The self-cleavage was 0.28.

For G2A C18U G19U A24U, which self-cleavage is on record?
Its self-cleavage is 0.09.

For G2A C23G A41G, which self-cleavage is on record?
Its self-cleavage is 0.33.

For G2A C42A U43C, which self-cleavage is on record?
Its self-cleavage is 0.08.

For G2A C8G U38G, which self-cleavage is on record?
Its self-cleavage is 0.13.

For G2A C31A G35A G40C, which self-cleavage is on record?
The self-cleavage was 0.05.

For G2A C8A C10A A12U C18G G30C, which self-cleavage is on record?
The self-cleavage was 0.01.

For G2A A12U G19C A24U, which self-cleavage is on record?
Its self-cleavage is 0.13.

With G2A C13A G27C U32G U34A as the variant, how does the self-cleavage read?
The self-cleavage was 0.05.

For G2A C13G A14G C15U A16U G21U U32A C46A, which self-cleavage is on record?
The self-cleavage was 0.32.

With G2A A6U G17C C31A A41U as the variant, how does the self-cleavage read?
The self-cleavage was 0.13.

For G2A A4G G21U C23A U38A, which self-cleavage is on record?
Its self-cleavage is 0.08.

With G2A C10A G36C A41C C45G as the variant, how does the self-cleavage read?
Its self-cleavage is 0.01.

For G2A G5A G7U C8U C46G, which self-cleavage is on record?
Its self-cleavage is 2.34.

Which self-cleavage does the source give for G2A A12C C37A U38A G40A here?
Its self-cleavage is 0.03.

For G2A G5C G7U C18G U28G G30A U38A, which self-cleavage is on record?
The self-cleavage was 0.08.

Which self-cleavage does the source give for G2A A14U A16U C37U here?
Its self-cleavage is 0.08.

Source: the RNAGym collection of RNA variant scans (doi:10.7554/elife.90254)
